Measurements as given in ChEMBL document CHEMBL1157539, “Thousands of chemical starting points for antimalarial lead identification” (Nature, 2010).
In all, about 13,000 compounds were measured (“IFI”: median about 4, highest 2% from about 17 on). The list shows a part of the results.

assay: GSK_TCMDC: Inhibition Frequency Index (IFI). The number of non-kinase HTS assays where a compound showed > 50 % inhibition, expressed as a percentage of the number of such assays in which the compound was tested (-0 is zero); assay type: functional

Row | Compound | IFI [%]
1 | CCn1c(C)c(C)c2cc(C(=O)Nc3ccon3)ccc21 | -0
2 | COc1cccc(C(=O)NCc2cccs2)c1OCc1ccccc1 | 0.72
3 | Oc1ccc(Nc2nc(NCC3CCCO3)c3ccccc3n2)cc1 (centres undefined) | 3.65
4 | COc1ccc(CC2(CO)CCN(Cc3ccc(O)c(Cl)c3)CC2)cc1 | 0
5 | Cc1[nH]cnc1CSCCN/C(=N\C#N)NCCCCCCCCN/C(=N/C#N)NCCSCc1nc[nH]c1C | 1.49
6 | CC(C)(CNCc1ccc(Cl)cc1)c1nc(-c2ccc(Cl)c(O)c2)c(-c2ccncc2)[nH]1 | 7.09
7 | CNCCNCc1ccc(-c2ccc(-c3nc4cc(C(F)(F)F)ccc4[nH]3)cc2)cc1 | 9
8 | CC(=O)Nc1ccc(C(=O)Nc2cccc(-c3cccc(-c4nc5cc(C(F)(F)F)ccc5[nH]4)c3)c2)cn1 | 3.7
9 | COc1ccc(CCN(C)CCc2ccc(NC(=O)c3cccc4c(=O)c5ccccc5sc34)cc2)cc1 | 6.45
10 | CCC(C)(C)NC(=O)C(c1cccc(OC)c1)N(C(=O)CNC(=O)c1cccs1)c1ccc2c(c1)OCCO2 (centres undefined) | 0.69
11 | COC(=O)[C@@H](NC(=O)[C@@H](Nc1ccc(C#N)c2ccccc12)C(C)(C)C)c1ccc(O)cc1 | 1.9
12 | Cc1ccccc1C(O)CNc1ccnc(Nc2cccc(C#N)c2)n1 (centres undefined) | 7.69
13 | CCOC(=O)c1cccc(NC(=O)Nc2cccc(-c3ncc(OCCCN)c4c3nc(-c3nonc3N)n4CC)c2)c1 | 16.5
14 | Nc1ncc(-c2cccc(CCN3CCOCC3)c2)cc1-c1nc2cc(Br)ccc2[nH]1 | 7.41
15 | COc1cc2nc(N3CCN(C(=O)c4cccc(I)c4)CC3)nc(N)c2cc1OC | 1.38
16 | CC1=C(C(=O)OCCOCc2ccccc2)C(c2ccccc2C(F)(F)F)C(C(=O)OCCOCc2ccccc2)=C(C)N1 | 3.6
17 | Cc1ccc(CNC(=O)[C@H](CC(C)C)Nc2cc(C)nc(NCC3CCCCC3)n2)cc1 | 19.1
18 | N=c1c2c(n(Cc3ccccc3)c3c1CCC3)CCCC2 | 1.45
19 | N=C(N)NCCN(Cc1ccccc1)c1ccccc1 | 4.44
20 | O=C(/C=C/c1ccc(Cl)c(Cl)c1)NCCCCCN1CCC(NC(=O)Nc2cccc(Cl)c2Cl)CC1 | 7.24
21 | O=C(NCc1cccc(OC(F)(F)F)c1)c1cnc2c(c1)nc(-c1c[nH]c(-c3ccccc3)n1)n2CCc1c[nH]cn1 | -0
22 | CS(=O)(=O)Nc1ccc(-c2ccc3ccnc(N)c3c2)cc1 | 8.99
23 | O=C(NCC1CCC(C(=O)NC2CCCc3ccccc32)CC1)c1ccc(O)c(-c2cccc([N+](=O)[O-])c2)c1 (centres undefined) | -0

Row | Compound | IFI [%]
24 | O=C(Nc1cccc(-c2ccc(CN3CCCC3)cc2)c1)c1ccc(F)cc1 | 5.83
25 | Cc1cccc2nc(-c3ccc(-c4cccc(CNCC5CCCO5)c4)s3)[nH]c12 (centres undefined) | 5
26 | Oc1ccc2[nH]c(-c3ccc(F)cc3F)nc2c1CN1CCC(O)(c2ccccc2)CC1 | 3.77
27 | O=C(Cc1ccc(Cl)cc1)NC1CCN(c2ccnc3cc(Cl)ccc23)C1 (centres undefined) | 3.13
28 | O=C(/C=C/c1ccc(Cl)c(Cl)c1)NCCCCCN1CCC(NC(=O)Nc2ccc(F)c(Cl)c2)CC1 | 12.4
29 | Cc1ccc(-n2ncc(C(=O)Nc3cc(Cl)cc(Cl)c3)c2C2CCNCC2)cc1C | 8.74
30 | CC(C)(C)C(Cn1ccnc1)NCc1c[nH]nc1-c1ccc(-c2ccccc2)cc1 (centres undefined) | -0
31 | N#Cc1ccc(N/C(=N\c2ccccc2Cl)NC2CCN(Cc3ccccc3)CC2)c(O)c1 | 1.47
32 | COc1cccc(C(=O)C2CC2CN(C)CCC(O)c2ccc(Cl)c(Cl)c2)c1 (centres undefined) | 3.6
33 | COc1ccc(Nc2ncc3c(-c4cccc(NC(=O)Cc5ccc(O)cc5)c4)c[nH]c3n2)cc1OC | 5.11
34 | Fc1cccc(COc2ccc(Nc3ncnc4sc(C#C[C@H]5CCCN5)cc34)cc2F)c1 | 10.1
35 | CNc1ccc(CNCc2cccc(-c3ccc(-c4nc5ccccc5[nH]4)cc3)c2)cc1 | 9
36 | O=C(/C=C/c1ccc(Cl)c(Cl)c1)NC1CCN(Cc2ccc(O)cc2)C1 (centres undefined) | 3.47
37 | COc1cc2ncnc(Nc3ccc(OCc4ccccc4)c(I)c3)c2cc1OC | 2.34
38 | COc1cccc(-c2cc(C(=O)Nc3cc(Oc4ccc(O)cc4)cc([N+](=O)[O-])c3)on2)c1 | 2.99
39 | CC(O)C(C)(CO)NCc1ccc2c3c(cccc13)-c1ccccc1-2 (centres undefined) | 7.3
40 | FC(F)(F)c1cccc(CNCC2CCN(Cc3ccc4c(c3)OCO4)CC2)c1 | 2.04
41 | CCc1cccc(NC(=O)c2ccc(CN3CCCN(CC4CCCCC4)CC3)cc2)c1 | 9.45
42 | Cc1nc(NC(=N)N)nc2cc3c(cc12)CCC3 | 4.14
43 | Oc1ccccc1CNCc1ccc(-c2cnc(N3CCCC(c4ccccc4)C3)nc2)cc1 (centres undefined) | 5.88
44 | COc1ccc(NC(=O)[C@H](CC(C)C)Nc2ccnc(Nc3ccccc3)n2)cc1 | 6.82
45 | CSc1ccccc1NC(=S)NC1CCN(CCCCCNC(=O)/C=C/c2ccc(Cl)c(Cl)c2)CC1 | 8.45
46 | Cc1cccc2nc(-c3ccc(-c4cccc(CNCCCNS(C)(=O)=O)c4)cc3)[nH]c12 | 1

Row | Compound | IFI [%]
47 | CCn1c(Cc2ccccc2)nnc1Sc1ccc([N+](=O)[O-])c(C#N)c1 | 2.05
48 | O=C(NC1CCCCC1)N(Cc1ccccc1-c1ccc(CNCCc2ccccc2)cc1)C1CCN(Cc2ccccc2)CC1 | 6.52
49 | COc1ccc(S(=O)(=O)N2CCCC(C)C2)cc1N1CCN(C(=O)c2ccc([N+](=O)[O-])o2)CC1 (centres undefined) | 5.13
50 | CCOc1ccc(Br)cc1/C=C/C(=O)Nc1ccc2c(c1)CN(C)CCC2 | 8.93
51 | O=C(Nc1ccc2c(c1)CCC2)c1cccc(CN2CCCN(Cc3cccc(O)c3)CC2)c1 | 2.8
52 | COc1ccc(Nc2nc(C)cc(NC3CCCC3)n2)cc1 | 16.2
53 | Cc1c(CNCCCNc2nc3ccncc3[nH]2)sc(Br)c1Br | 1.5
54 | O=C(/C=C/c1ccc(F)c(Br)c1)NCCCCCN1CCC(c2c[nH]c3ccccc23)CC1 | 9.49
55 | O=S(=O)(Nc1cccc(CCN2CCC(N3CCCCC3)CC2)c1)c1ccc(Oc2ccccc2)cc1 | 11.1
56 | O=C(c1cc2cccc([N+](=O)[O-])c2[nH]1)N1CCC(CCN2CCC(c3c[nH]c4ccccc34)CC2)CC1 | 8.03
57 | CC(C)(CNC(=O)C1CCN(CCOc2ccc(F)c(F)c2)CC1)c1nc(-c2ccc(Cl)c(O)c2)c(-c2ccncc2)[nH]1 | 5.07
58 | CC[C@H](C)CNC(=O)c1ccnc(-c2ccc(CNC3Cc4ccccc4C3)cc2)c1 | 7.46
59 | CNc1ccc(CNCc2cccc(-c3ccc(-c4nc5ccccc5[nH]4)s3)c2)cc1 | 9.71
60 | O=C(/C=C/c1ccc(Cl)c(Cl)c1)N1CCC(NCc2ccc3[nH]ccc3c2)CC1 | 3.85
61 | Cc1cccc2nc(O)c([N+](=O)[O-])c(O)c12 | 1.52
62 | OCCN1CCN(C(=S)NC2CCCCC2)CC1 | 0
63 | CCOc1ccc(C(=O)Nc2cc(Br)c3c(c2)CNCC3)cc1C#N | 3.6
64 | COc1ccc(S(=O)(=O)NC2CCN(c3ccnc4cc(Cl)ccc34)C2)cc1 (centres undefined) | 4.62
65 | CCCNCc1ccc(-c2ccc(CN(Cc3cnc(C)cn3)C(=O)CC#N)cc2)nc1 | 1.4
66 | COc1ccc(Cl)cc1NC(=O)CN(C)C(=O)c1cnn(-c2ccccc2)n1 | 1.98
67 | CCOC(=O)CCCCOc1c(OC)cc(Cc2cnc(N)nc2N)cc1OC | 0.74
68 | CCn1cc(CN2CCCC(C(=O)Nc3ccc(-c4nc5ccccc5[nH]4)cc3)C2)c(C)n1 (centres undefined) | -0
69 | FC(F)(F)c1cccc(N=C(S)NN=Cc2ccccn2)c1 | 4.72

Row | Compound | IFI [%]
70 | CCCC(=O)Nc1ccc(OCCCN(Cc2ccccc2OC(F)(F)F)c2ccc(C#N)c(C(F)(F)F)c2)cc1 | -0
71 | FC(F)(F)c1cccc(CCNc2nccc(NCc3ccccc3Cl)n2)c1 | 8
72 | CCOC(=O)Cc1nc(C(=O)OCC)c(N)[nH]1 | 0
73 | COC(=O)C(=O)c1c(-c2ccccc2)c(-c2ccc(OC)c(OC)c2)c2c3cc(OC)c(OC)cc3ccn12 | -0
74 | Cc1cccc2nc(-c3ccc(-c4ccc(NC(=O)C(C)CN(C)C)cc4)cc3)[nH]c12 (centres undefined) | 5.41
75 | CC(C)N1CCN(C(=O)c2ccc(CNCCCN3CCN(c4cccc(Cl)c4Cl)CC3)s2)CC1 | 12.1
76 | O=[N+]([O-])c1ccc(-c2ccc(C=NNc3nc(Nc4ccccc4)nc(Nc4ccccc4)n3)o2)cc1 | 0.72
77 | COc1cc(NCCCNCC2c3ccccc3Oc3ccccc32)nc2ccccc12 | 20.8
78 | CCCCCCP(=O)(COc1ccc(CCN(CC(O)COc2cccc3[nH]c(C(N)=O)cc23)CC(O)COc2cccc3[nH]c(C(N)=O)cc23)cc1)OCCCC (centres undefined) | 5.59
79 | COc1ccc(CNC2CCN(C)CC2)cc1-c1ccc(S(=O)(=O)NCCN2CCCC2)s1 | -0
80 | O=c1cc(NCCCNCc2ccc(C(F)(F)F)s2)[nH]c2ccccc12 | 0.72
81 | CC1(C)NC(N)=NC(=N)N1OCCSc1ccc(Cl)c(Cl)c1 | 6.67
82 | COc1ccc(C(=O)CCC(=O)N(Cc2ccc(-c3ccc(CNCc4cccnc4)cn3)cc2)C2CCN(Cc3ccccc3)CC2)cc1F | 4.73
83 | CC(C)C[C@H](NC(=O)c1cc(-c2ccc(C(C)(C)C)cc2)no1)C(=O)O.CC(C)C[C@H](NC(=O)c1conc1-c1ccc(C(C)(C)C)cc1)C(=O)O | 0.74
84 | CC(C)(CNCc1ccccc1)c1nc(-c2ccc(Cl)c(O)c2)c(-c2ccncc2)[nH]1 | 8.9
85 | NC(=O)c1cc2nc(Nc3ccc(F)cc3)nc(NC3CCC3)c2[nH]1 | 11.9
86 | CCC[C@@H]([C@@H](CC1CCC(C)CC1)C(=O)N[C@@H](CO)C(=O)Nc1nccs1)N(O)C=O (some centres undefined) | 1.6
87 | O=c1cc(N2CCNCC2)c(Cl)nn1Cc1ccc(NS(=O)(=O)c2ccc(Oc3ccccc3)cc2)cc1 | 6.9
88 | Cc1noc(C)c1-c1cccc(CNCc2cccc(-c3cccc(-c4nc5cc(F)ccc5[nH]4)c3)c2)c1 | 5.88
89 | CC(C)NCc1cccc(-c2cccc(NC(=O)c3cccc(C#N)c3)c2)c1 | 0.98
